According to PubChem BioAssay AID1508623 (National Center for Advancing Translational Sciences (NCATS), 2021):
Hit rate of the full screen: of about 48,000 compounds, about 450 (0.94%) were called active. Not shown: some 19% with an inconclusive outcome. Calls follow the shape of the dose curve; as a rule, active = well fitted inhibition curve with a large enough effect; inconclusive = small, poorly fitted or top-dose-only effect; inactive = no such curve, though single readings can be large or run the other way. The list shows a part of the results.

Experiment: Primary qHTS for Identification of Small Molecule Inhibitors of Huntingtin Promoter Activity; also: nearly all actives have a fitted effect of over 50% in size
Conditions: HEK293 HTT promoter firefly luciferase reporter (activity 0% = vehicle and -100% = no light), 24 h; series mostly up to 57.5 µM; activity change, negative = inhibition: at the top concentration
Method in brief: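 Firefly luciferase readout (Dual-Glo, 10 min RT) after 24 h, 37 °C compound exposure (final up to 57.5 uM) of HEK293 reporter cells cultured 24 h beforehand; PTC124 at 50 uM final as control inhibitor; activity scaled vehicle 0%, zero RLU -100%.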

Activity change, negative = inhibition, inactive:
CC1=C(c2ccc(Cl)cc2)S(=O)(=O)N=C1N1CCN(c2cccc(C)c2C)CC1 -6.56%, Cc1cccc(NC(=O)CSc2nc3ccc(NC(=O)c4ccccc4)cc3s2)c1 -11.4%, COc1cccc(CN2C(=O)c3ccccc3Sc3ccc(C(=O)OCc4ccco4)cc32)c1 -26.8%, COc1cc(NC(=O)Cn2c(=O)cc(C)c3c(C)nn(-c4ccc(C)cc4)c32)cc(OC)c1 -25%, CC(=O)N1c2ccc(S(=O)(=O)N3CCCCCC3)cc2CC1C(=O)NCc1cccc(C)c1 (stereo unspecified) -6.58%, CCOc1ccc(-c2cc3nc(C4CCN(C(=O)OC(C)(C)C)CC4)c(C(=O)Nc4cccc(CC)c4)cn3n2)cc1 -24.8%, Fc1ccc(NCc2ccccc2-c2nnc(-c3ccccc3Cl)o2)cc1 45.3%, Cc1ccc(CNc2nnc(C)c3nnn(Cc4ccc(F)cc4)c23)cc1 -17.7%, CCSc1nc2n(n1)C(c1ccc(Cl)cc1Cl)C(C(=O)Nc1ccccc1C)=C(C)N2 (stereo unspecified) -21.8%, Cc1ccc(-n2ccn(CC(=O)NCCc3ccccc3)c(=O)c2=O)cc1C 19.1%, CC(C)(C)c1ccc(-c2nc(NC(=O)CSc3ncnc4sc5c(c34)CCCC5)ns2)cc1 2.3%, Cc1ccc(-n2ncc3c(NCc4ccccc4)ncnc32)cc1Cl 22.4%, COc1ccc(N2CC(NC(=O)/C=C\c3ccc4c(c3)OCO4)CC2=O)cc1OC (stereo unspecified) -14.9%, COc1ccc(NC(=O)CN(C)S(=O)(=O)c2ccc3c(c2)CCCN3C(C)=O)cc1 -26.8%, CCc1ccccc1NC(=O)Cn1cc(S(=O)(=O)N2CCCC2)c(S(=O)(=O)N2CCCC2)c1 3.14% [at 11.5 µM], O=C(c1ccco1)N(Cc1cccnc1)c1nc2c(F)cc(F)cc2s1 -7.8%, COc1ccccc1NC(=O)CSc1nncn2c1cc1sccc12 5.12%, C[C@]12CC[C@@H]3c4ccc(O)cc4C[C@@H](CCCCCCCCCS(=O)CCCC(F)(F)C(F)(F)F)[C@H]3[C@@H]1CC[C@@H]2O (stereo partly specified) -3.35%, Cc1ccccc1CNC(=O)c1ccc2nc(SCc3ccc(F)cc3)n(C)c2c1 -28.3%, CCOCCCNC(=O)C(c1ccccc1)N(Cc1ccc2c(c1)OCO2)C(=O)c1ccc(NC(C)=O)cc1 (stereo unspecified) -17.1%, Cc1ccccc1CN1C(=O)c2ccccc2S(=O)c2ccc(C(=O)NCc3ccc(Cl)cc3)cc21 (stereo unspecified) -26.9%, Cc1ccc2cccc(NC(=O)c3ccc(OC(C)C)cc3)c2n1 -7.51%, CCc1ccccc1NC(=O)CN(c1ccccc1)S(=O)(=O)c1ccsc1C(=O)OC -23.4%, O=C(NCc1ccc2c(c1)OCO2)c1ccc2c(c1)N(Cc1ccccc1F)C(=O)c1ccccc1S2 -4.19%, CC(C)(C)OC(=O)N1CCC(c2c(C(=O)NCCN3CCc4ccccc4C3)cnn2-c2ccc(F)cc2)CC1 -30.6%, CC(C)c1ccc(OCC(=O)NCCS(=O)(=O)N2CCN(c3ccc(F)cc3)CC2)cc1 -15.6%, COc1ccccc1C(=O)N1c2ncnn2C2(CCCCC2)[C@@H]2CCCC[C@@H]21 -23.4%, COc1ccc(Cn2c(C(=O)O)c(CNC3CCCC3)c3ccc(OC)cc32)cc1 -23%, CCn1c(=O)cc(SCC(=O)NCc2cccc(Cl)c2)c2ccccc21 -26.9%, CCOC(=O)c1ccc(NC(=O)C(CC)Sc2nc3ccncc3[nH]2)cc1 (stereo unspecified) -22.3%, CCOc1ccc(-c2nn(-c3ccccc3)cc2C2NC(=O)NC(C)=C2C(=O)OC(C)C)cc1 (stereo unspecified) -26.5%, COCCNC(=O)c1c[nH]c2ccc(S(=O)(=O)Nc3ccc(F)cc3F)cc2c1=O 2.5%, Cn1ccc2c(OCC(=O)NCc3ccccc3)cccc2c1=O -20.1%, CC(C)c1nn2c(=O)cc(COC(=O)c3cccc(NC(=O)c4cccs4)c3)nc2s1 -18.9%, CCc1ccc(C2=NN(CCC(=O)NCCc3ccc(OC)c(OC)c3)C(=O)CC2)cc1 -27.6%, Cc1ccc(N2CC(NC(=O)c3cc4ccccc4o3)CC2=O)cc1C (stereo unspecified) -22.8%, CCc1ccccc1NC(=O)CCOc1ccccc1 -12.6%, CCc1ccccc1NC(=O)Cn1c(=O)n(-c2ccc(CC(=O)NCC3CCCO3)cc2)c(=O)c2ccccc21 (stereo unspecified) -9.95%, COc1ccc(CSc2nc3ccncc3n2CC(=O)Nc2ccc(C)c(F)c2)cc1 19.9%, Cc1ccccc1C(=O)Nc1ccc2nc(SCC(=O)N3CCc4ccccc43)sc2c1 -14.5%, COc1ccc(CNC(=O)c2ccc3c(c2)N(Cc2ccc(C)cc2)CCS3)cc1 -30.6%, CCOC(=O)c1cnc2nc(NCc3cccc(Br)c3)[nH]n2c1=O -9.05%, COc1ccccc1CNC(=O)CC(c1ccc(C)cc1)N1Cc2ccccc2C1=O (stereo unspecified) -3.98%, COc1ccc(CCNC(=O)CCS(=O)(=O)c2cc(Br)cc3c2N(C(C)=O)CC3)cc1OC -13.1%, Cc1ccc(CNC(=O)C2COc3ccccc3C2)cc1 (stereo unspecified) 58.7%, COC(=O)CSc1nc2sc3c(c2c(=O)n1-c1ccccc1C)CC(C)(C)OC3 1.21%, Clc1ccc(-c2nc3c4cnn(-c5ccccc5Br)c4ncn3n2)c(Cl)c1 8.06%, Cc1ccccc1NC(=O)c1sc2nc3n(c(=O)c2c1C)CCC3 102%, Cc1ccc(-n2nnc(-c3nc(-c4cccs4)no3)c2N)c(C)c1 64.4%, CC(C)c1ccc(OCC(=O)Nc2c(C(=O)c3ccc(F)cc3)oc3ccccc23)cc1 15.6%, COc1ccccc1CNC(=O)Cn1ncn2c(cc3sccc32)c1=O 8.21%, Cc1ccc(Nc2c(-c3ccsc3)nc3c(C)cccn23)cc1 -7.86%, COc1ccc(S(=O)(=O)NCc2cccn2Cc2cccc(C)c2)cc1 0%, COc1ccccc1NC(=O)CC(c1cc(OC)c(OC)c(OC)c1)N1Cc2ccccc2C1=O (stereo unspecified) -8.1%, Cc1c(C)n(C)c2ccc(C(=O)NCc3cccc(F)c3)cc12 2.54%, COc1cc2c(cc1NC(=O)COc1ccc(Cl)cc1Br)oc1ccccc12 -5.08%, Cc1cc(=O)c2cc(C(=O)Nc3ccccc3C)ccc2[nH]1 -7.53%, CCOc1cc2sc(N3CCC(C(=O)Nc4cc(C)cc(C)c4)CC3)nc2cc1Br 65%, COC(=O)c1cc2sc(Cl)cc2n1Cc1cc(C)ccc1C -4.2%, COc1ccc(Cn2ccc3nc(C)c(C(=O)NCc4cccc(OC)c4)cc3c2=O)cc1 -22.4%, CCc1ccccc1NC(=O)Cn1c2ncccc2c(=O)n1-c1ccccc1 -27.4%, COC(=O)c1ccc(CSc2nnc3ccc4ccccc4n23)cc1 33.5%, COc1cc(F)c(S(=O)(=O)Nc2c(C)n(C)n(-c3ccccc3)c2=O)cc1OC -4.92%, CCn1cc2c(n1)-c1c(oc(C(=O)Nc3cccc(C(F)(F)F)c3)c1C)CC2 6.38%, Cc1ccc(N(C)C(=O)c2cc(S(=O)(=O)N3CCOCC3)cn2C)cc1 -4.25%, CCCN(Cc1cccs1)C(=O)Nc1cc(OC)ccc1OC -7.36%, O=C(CN1CCSc2ccccc21)N1CCN(c2ccc(F)cc2)CC1 -18.3%, COc1ccc(CCNC(=O)CCCCn2c(=O)c3ccccc3n(Cc3ccccc3Cl)c2=O)cc1OC -12.5%, COc1ccccc1-c1noc(CCCC(=O)Nc2cc(C)ccc2C)n1 -2.63%, COc1ccc(C(=O)Nc2ccc(C(=O)OCc3cc(=O)n4nc(C5CC5)sc4n3)cc2)cc1 2.21%, Cc1ccc(-n2nc3c(N4CCC(C(=O)NCc5ccccc5Cl)CC4)nnc(C)c3c2C)cc1 -2.24%, CC(=O)c1ccc(NC(=O)CCOc2ccccc2)cc1 46.5%, CCOC(=O)c1c(C)[nH]c(C)c1S(=O)(=O)NCC(=O)N1CCN(c2ccccc2OC)CC1 -4.09%, CCN(CC)C(=O)Nc1ccc2c(c1)N(Cc1ccccc1)C(=O)c1ccccc1S2 -5.63%, CCc1cccc(C)c1NC(=O)CN1CCCN(Cc2ccccc2Cl)S1(=O)=O -23.8%, CCOc1ccccc1NC(=O)C(CC)n1c(C(=O)OC)cc2occc21 (stereo unspecified) -21.8%, CCCn1c(=NC(=O)c2cc3ccccc3o2)c(C(=O)OCC)cc2c(=O)n3ccccc3nc21 -15.3%, COc1ccc(Nc2oc(/C=C/c3cccc(OC)c3)nc2C#N)cc1 1.47%, O=C(Cn1ncc2ccsc2c1=O)N1CCN(c2ccccc2F)CC1 -10.8%, CCCCN(CC)CCNC(=O)C1CCCN(S(=O)(=O)c2cccc3nsnc23)C1 (stereo unspecified) 2.82%, O=S(=O)(c1ccc(-n2cnnn2)cc1)N1CCN(c2cccc(Cl)c2)CC1 -9.36%, Cc1c(C(=O)N2CCCCCC2)c(S(=O)(=O)N(Cc2ccccc2)C(C)(C)C)c(C)n1C -11.7%, Cc1ccc(-n2c(=O)c3cccnc3n2CC(=O)Nc2cc(Cl)ccc2C)cc1 10.7%, O=c1cc(-c2ccccc2)n2c(SCc3c(F)cccc3Cl)nnc2[nH]1 -5.83%, Cc1ccc(NC(=O)C(=O)NCc2ccco2)cc1 48.2%, Cc1ccc(NC(=O)CN(C)S(=O)(=O)c2cnc[nH]2)cc1 9.02%, Cc1ccc(NC(=O)Cn2c(=O)n(CCCCC(=O)NCc3ccccc3Cl)c(=O)c3ccccc32)cc1 0.612%, COc1ccccc1OCC(=O)NCC(c1ccc(Cl)cc1)N1CCOCC1 (stereo unspecified) -20.8%, CCCc1nn2c(=O)cc(COc3ccc(/C=C(\C#N)C(=O)Nc4ccccc4)cc3)nc2s1 -10.2%, COc1ccc(C(CC(=O)NCc2ccccc2Cl)N2Cc3ccccc3C2=O)cc1OC (stereo unspecified) -21.3%, CC(C)CC(=O)NC1(C(F)(F)F)C(=O)Nc2c1c(=O)[nH]c(=O)n2-c1ccccc1 (stereo unspecified) 4.43%, CCc1nonc1NC(=O)c1oc2ccc(Br)cc2c1C -0.702%, CCc1ccc(-n2c(=O)c3c4c(sc3n(CC(=O)N3CCC(C)CC3)c2=O)CCC4)cc1 -13.1%, CCOC(=O)c1ccc(NC(=O)CSc2cc(=O)n(CC)c3ccccc23)cc1 -8%, Cc1ccc(S(=O)(=O)c2cn(Cc3cccc(C)c3)c3cc4c(cc3c2=O)OCO4)cc1 -4.98%, Cc1ccc(Cl)cc1NC(=O)c1oc2ccc(S(=O)(=O)N(C)C3CCCCC3)cc2c1C -3.59%
